Screen size: about 48,000 compounds; about 120 (0.25%) were called active. Inconclusive results (about 4%) are left out. Calls come from the whole dose curve; as a rule, active = well fitted activation curve with a large enough effect; inconclusive = small, poorly fitted or top-dose-only effect, or another doubt; inactive = no such curve, though single readings can be large or run the other way. The list shows a part of the results.
Test: Primary qHTS for Identification of Small Molecule Activators of Huntingtin-Antisense Promoter Activity; note: nearly all actives have a fitted effect of over 55% in size
Details: HEK293 HTT-AS promoter firefly luciferase reporter, 24 h; series mostly up to 57.5 µM; activity change, positive = activation: at the top concentration
Summary of the method: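 Firefly luciferase readout (Dual-Glo, 10 min RT) after 24 h, 37 °C compound exposure (final up to 57.5 uM) of HEK293 reporter cells cultured 24 h beforehand; PTC124 at 50 uM final as control inhibitor; activity scaled vehicle 0%, zero RLU -100%.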
Potency is the fitted concentration of half-maximal effect.

SMILES | activity change, positive = activation | Potency
CC(C)CCN(Cc1ccco1)C(=O)Cn1ncc2c([nH]c3ccccc32)c1=O | inactive: -38.9% | 
O=c1c(N2CCc3ccccc3C2)csc2ccc(Br)cc12 | inactive: 22.3% | 
COc1ccccc1Cc1nc2ccccc2nc1SCC(=O)N1CCC(C)CC1 | inactive: -42.4% | 
CCOC(=O)c1cc(-c2ccccc2)n(CCCC(=O)Nc2cc(C)ccc2OC)c1C | inactive: -24.9% | 
Cc1cccc(C(=O)Nc2ccc(N3CCN(c4ccc(F)cc4)CC3)c(C(=O)O)c2)c1 | inactive: -4.69% | 
Cc1ccc2nc(SCC(=O)Nc3ccc(C#N)cc3)[nH]c2c1 | inactive: -11.2% | 
Cc1c(C(=O)N2CCC(C)CC2)c(S(=O)(=O)N2CCN(c3cccc(Cl)c3)CC2)c(C)n1C | inactive: -16.7% | 
COc1ccc(OC)c(NC(=O)CCc2nc(-c3ccc(C)cc3)no2)c1 | inactive: -14% | 
COc1ccc(S(=O)(=O)c2cn(Cc3ccccc3)c3cc(F)c(F)cc3c2=O)cc1 | inactive: 0% | 
CN1C(=O)c2[nH]nc(-c3ccc(F)cc3)c2C1c1ccccn1 (centres undefined) | inactive: -9.2% | 
CCOc1ccc(C(=O)NCc2ccc3c(c2)CCN3C(=O)c2ccc(C)cc2)cc1OCC | inactive: -31% | 
COc1ccc(Nc2cc(C(=O)NCc3ccccc3)c3ccccc3n2)cc1OC | inactive: 7.23% | 
O=c1c(S(=O)(=O)c2ccc(Cl)cc2)cn(Cc2ccc(F)cc2)c2ccc(F)cc12 | inactive: -2.63% | 
COc1ccccc1NC(=O)c1cc(S(=O)(=O)N2CCc3ccccc32)ccc1F | inactive: -30.1% | 
COc1ccc(NC(=O)c2cc3c(=O)n(Cc4cccnc4)ccc3nc2C)cc1Cl | inactive: -4.29% | 
C=Cc1ccc(Cn2c(=O)cc(C)c3c(C)nn(C)c32)cc1 | inactive: -22.1% | 
Cc1cccc(N2CCN(c3c4c(nc5nncn35)CCC4)CC2)c1C | inactive: -10.4% | 
COc1cc(-c2nnc(SCC(=O)Oc3ccccc3Cl)o2)cc(OC)c1OC | inactive: -5.81% | 
O=[N+]([O-])c1nccn1CO[C@@H](CO)[C@H](O)CO | inactive: -8.15% | 
COc1ccc(S(=O)(=O)c2cn(Cc3ccccc3)c3ccc(OC)cc3c2=O)cc1 | inactive: -23.1% | 
CN(C)c1ccc(C(CNS(=O)(=O)c2ccc(F)cc2)N2CCc3ccccc32)cc1 (centres undefined) | inactive: -9.25% | 
COc1ccc(CNC(=O)CN2C(=O)COc3ccc(S(=O)(=O)N4CCOCC4)cc32)cc1 | inactive: -13.1% | 
CCOc1ccc(/C=C/c2nc(C#N)c(N3CCN(c4ccccc4)CC3)o2)cc1 | inactive: -8.87% | 
CCOCN(C(=O)Cn1cnc2cc(C)c(C)cc21)c1c(C)cccc1CC | inactive: -36.7% | 

SMILES | activity change, positive = activation | Potency
CCOc1ccc(N(CC)S(=O)(=O)N2CCCC(C(=O)NCCc3ccccc3OC)C2)cc1 (centres undefined) | inactive: -35.1% | 
CC1CCCCN1C(=O)CSc1nnc(-c2ccccc2Cl)o1 (centres undefined) | inactive: 18% | 
COc1ccccc1CNC(=O)Cn1c(=O)ccc2cc(S(=O)(=O)N3CCCC3)ccc21 | inactive: -3.92% | 
Cc1cccc(Oc2coc3cc(OCC(=O)NC4CCCCC4)ccc3c2=O)c1 | inactive: -33.8% | 
COc1ccc(-c2cn3nc(N4CCC(C(=O)Nc5ccc(C)cc5)CC4)sc3n2)cc1 | inactive: 9.15% | 
O=C(Nc1ccc(C(=O)N2CCN(c3ccc(Cl)cc3)CC2)cc1)c1nsc2ccccc12 | inactive: -71.4% | 
Cc1ccc2oc(-c3cc(NC(=O)c4cccs4)cc(C)c3O)nc2c1 | inactive: 3.89% | 
COc1ccc(Br)cc1CNC(=O)C1COc2ccccc2C1 (centres undefined) | inactive: 11.9% | 
Fc1ccc(Nc2nc(Nc3ccc(F)cc3)nc(N3CCOCC3)n2)cc1 | inactive: -17.2% | 
CCCCn1c(SCC(=O)Nc2ccc(F)cc2)nc2c(sc3ccccc32)c1=O | inactive: -1.67% | 
C[C@H](NC(CCc1ccccc1)C(=O)O)C(=O)N1CCC[C@H]1C(=O)O (some centres undefined) | inactive: -18.4% | 
CC(C)c1ccc(NC(=O)Cn2nnc(C(=O)NCc3cccs3)c2N)cc1 | inactive: -8.86% | 
CCOc1ccccc1N(CC(=O)Nc1ccc(OC)c(Cl)c1)S(=O)(=O)c1ccccc1 | inactive: -29.9% | 
O=C(CSc1nnc(-c2ccc(Br)cc2)n1-c1ccccc1)c1ccccc1 | inactive: 0.416% | 
Cc1ccc2oc3c(c(=O)c2c1)C(c1ccc(OCC(N)=O)cc1)N(Cc1ccc2c(c1)OCO2)C3=O (centres undefined) | inactive: -5.14% | 
COc1ccc(NC(=O)C(=O)NCC2(c3ccccc3)CCCC2)c(OC)c1 | inactive: -12.1% | 
CCOc1ccc(-c2cc(C(=O)N3CCN(c4cccc(C(F)(F)F)c4)CC3)c3ccccc3n2)cc1 | inactive: 26% | 
COc1ccc(C(=O)NCC(c2ccc3c(c2)OCO3)N2CCN(c3ccc(F)cc3)CC2)cc1 (centres undefined) | inactive: -35.6% | 
Cc1ccc(N(CC(C)C)S(=O)(=O)c2nnc(NC(=O)c3cccs3)s2)cc1 | inactive: -21.4% | 
CCOc1ccc2oc(=O)cc(CN3CCN(c4ccc(Cl)cc4)CC3)c2c1 | inactive: -22.2% | 
CC(=O)N1CCc2cc(Br)cc(S(=O)(=O)CCC(=O)Nc3ccc(C)cc3Cl)c21 | inactive: -13.1% | 
CCc1c(C)c2ccc(O)c(CN3CCN(c4ccccc4)CC3)c2oc1=O | inactive: -11.8% | 
CCOC(=O)c1c(NC(=O)COc2ccc(Cl)cc2C)sc(C(C)=O)c1C | inactive: -4.78% [at 11.5 µM, percent change from vehicle, -100% = no light] | 
CCc1cccc(C)c1NC(=O)CN(C)S(=O)(=O)c1cccc2nsnc12 | inactive: 4.6% | 

SMILES | activity change, positive = activation | Potency
Cc1ccc(N2CCN(c3nc4c(S(=O)(=O)c5ccc(C)c(C)c5)nnn4c4ccccc34)CC2)c(C)c1 | inactive: -7.99% | 
Cc1c(C(=O)N(Cc2ccc(N(C)C)cc2)CC2CCCO2)oc2ccc(Br)cc12 (centres undefined) | inactive: -11.3% | 
Cc1ccc(S(=O)(=O)c2cn(C)c3cc(N4CCCCC4)c(F)cc3c2=O)cc1 | inactive: -12.8% | 
COc1ccc(C)cc1NC(=O)N1CCC(CN2CCC(C)CC2)CC1 | inactive: -6.18% | 
Cc1ccc(-n2c(SCC(N)=O)nc3c([nH]c4ccccc43)c2=O)cc1 | inactive: -24.9% | 
O=C(c1ccc(CS(=O)(=O)c2c(Cl)cccc2Cl)o1)N1CCN(c2ccccc2)CC1 | inactive: -41.7% | 
Cc1cncn1CCc1nc2c3ccccc3nc(SCC(=O)Nc3ccccc3F)n2n1 | inactive: -0.821% | 
Cc1ccc(Cl)cc1N1CCN(c2ncnc3onc(-c4ccc(F)cc4)c23)CC1 | inactive: -1.42% | 
Cc1ccc(Cn2c(C)c(CNC(C)c3ccccc3)c(C(=O)O)c2C)cc1 (centres undefined) | inactive: -34.6% | 
CCOC(=O)N1CCN(C(=O)CN(c2cc(C)ccc2OC)S(=O)(=O)c2ccc(C)cc2)CC1 | inactive: -2.25% | 
O=C(O)CCCCC(CCSCc1ccccc1)SCc1ccccc1 (centres undefined) | inactive: -21.3% | 
Cc1ccc(-c2nnc(Nc3cccc(C(F)(F)F)c3)c3ccccc23)cc1S(=O)(=O)N1CCOCC1 | inactive: -36.3% | 
CCc1ccc(-n2nc(C)c3c(C(=O)Nc4cc(C)ccc4C)cc(C)nc32)cc1 | inactive: -15.3% | 
CCOc1ccccc1CNC(=O)C1CCCN(S(=O)(=O)c2ccc3c(ccn3C)c2)C1 (centres undefined) | inactive: -30.1% | 
CC1CCN(S(=O)(=O)c2nnc(NC(=O)c3cccc(F)c3)s2)CC1 | inactive: -29.2% | 
COC(=O)c1sc2cccc(F)c2c1S(=O)(=O)N1CCN(c2ccc(C)cc2C)CC1 | inactive: -26.6% | 
COc1nc(-c2ccc(C)cc2)ccc1-c1noc(-c2ccc(C(C)(C)C)cc2)n1 | inactive: -5.26% | 
Cc1cccc(N2CCN(C(=O)c3ccc4c(c3)c(C)c(C)n4C)CC2C)c1 (centres undefined) | inactive: -26.8% | 
Cc1ccc(NC(=O)c2cc(S(=O)(=O)N3CCCC3)c[nH]2)c(C)c1 | inactive: -14.7% | 
COc1ccc(OC)c(S(=O)(=O)NCCc2csc3nc(-c4ccccc4)nn23)c1 | inactive: -9.42% | 
COc1ccccc1N1CCN(c2cc(C)nc3nc(-c4ccc(Cl)cc4)nn23)CC1 | inactive: -15.7% | 
CCN(CC)CCCNC(=O)c1nn(-c2ccc(C)cc2)c(=O)c2c1c1ccccc1n2C | inactive: -0.604% | 
CCN(Cc1ccccc1)C(=O)c1sc2nc3n(c(=O)c2c1C)CCCC3 | inactive: -19.5% | 
CCOc1ccc(CNS(=O)(=O)c2ccc(-c3coc(C)n3)cc2)cc1OC | inactive: -37.3% | 

SMILES | activity change, positive = activation | Potency
CCCCN(C)CCCNC(=O)Cn1ncc2c3ccccc3n(Cc3cc(C)ccc3C)c2c1=O | inactive: -30.4% | 
CCC(=O)N1c2ccc(S(=O)(=O)CCC(=O)Nc3ccc(Br)c(C)c3)cc2CC1C (centres undefined) | inactive: -29.7% | 
CCOCCCN(Cc1ccco1)C(=O)c1cc2c(=O)[nH]c3ccc(C)cc3c2s1 | inactive: -49% | 
COCCNC(=O)Cn1c(=O)n(CCCCCC(=O)Nc2ccccc2)c(=O)c2sccc21 | inactive: 14.6% | 
O=S(=O)(c1ccccc1)c1nnn2c1nc(NCc1ccccc1)c1sccc12 | inactive: -7.15% | 
COc1ccc(/C=C(\C#N)c2nc3ccccc3n2C)c(OC)c1 |  | active: 3.55 µM
Cc1ccc(Cl)cc1N1CCN(C(=O)CN2C(=O)CSc3c2c(C)nn3-c2ccccc2)CC1 | inactive: 3.08% | 
COc1cccc(NC(=O)c2cnc(SCC(=O)N3CCOCC3)n(C)c2=O)c1 | inactive: -25.3% | 
O=C(NCc1cccs1)c1ccc(Cn2c(SCc3ccc(F)cc3)nc3cccnc32)cc1 | inactive: -6.84% | 
COc1ccc(-c2cn3c(n2)sc2cc(C(=O)NCCc4ccc(OC)cc4OC)ccc23)cc1 | inactive: -30.4% | 
Cc1cccc2sc(N(CCCN(C)C)C(=O)COc3ccccc3)nc12 | inactive: -11% | 
COC(=O)c1ccccc1NC(=O)Cn1c(=O)n(-c2cccc(C(F)(F)F)c2)c(=O)c2c(C)c(C)sc21 | inactive: 10.4% | 
CCOc1ccc(N(CC)S(=O)(=O)N2CCCC(C(=O)NCCc3ccc(OC)cc3)C2)cc1 (centres undefined) | inactive: -31% | 
CCN(CC)S(=O)(=O)c1ccc2oc(C(=O)NCc3ccccc3OC)c(C)c2c1 | inactive: -20.5% | 
Cc1ccc(S(=O)(=O)NCC2CCC(C(=O)NCCc3ccc(Cl)cc3)CC2)cc1 (centres undefined) | inactive: -2.54% | 
Cc1ccc(C)c(N2CCN(C(=O)c3cc(S(=O)(=O)N4CCCCCC4)cn3C)CC2)c1 | inactive: -42.6% | 
COCCCNC(=O)c1ccc(Cn2c(SCc3cccc(C)c3)nc3cccnc32)cc1 | inactive: 13.3% | 
CCOC(=O)C1CCCN(C(=O)c2nn(-c3ccc(C)cc3)c(=O)c3c2c2ccccc2n3C)C1 (centres undefined) | inactive: 7.11% | 
CCCn1c(CCCNC(=O)c2ccccc2OC)nc2ccccc21 | inactive: -13% | 
O=C(/C=C\c1ccccc1)NC1CC(=O)N(c2ccccc2)C1 (centres undefined) | inactive: -6.21% | 
Cc1cc(C)c2c(n1)sc1c(=O)n(-c3cc(Cl)ccc3C)nnc12 | inactive: -43.1% | 
CC(=O)CCCCn1c(=O)c2c(ncn2C)n(C)c1=O | inactive: -3.03% | 

— PubChem BioAssay AID1508624 (National Center for Advancing Translational Sciences (NCATS), 2021)
